Whole data set: some 33,000 sequences, median “E-score (-0.5 to 0.5)” near -0.016, cut for the highest 2% near 0.32. Some of the results follow.
biological target: T1, Stp1 (UniProt B3LFK1); experiment: PBM E-score (8-mer binding enrichment) (E-score (-0.5 to 0.5)); higher = stronger / more preferred TF binding; most listed sequences are background and not binding sites; settings: protein concentration: 200 nM; construct: GST-full length
T1 sequence: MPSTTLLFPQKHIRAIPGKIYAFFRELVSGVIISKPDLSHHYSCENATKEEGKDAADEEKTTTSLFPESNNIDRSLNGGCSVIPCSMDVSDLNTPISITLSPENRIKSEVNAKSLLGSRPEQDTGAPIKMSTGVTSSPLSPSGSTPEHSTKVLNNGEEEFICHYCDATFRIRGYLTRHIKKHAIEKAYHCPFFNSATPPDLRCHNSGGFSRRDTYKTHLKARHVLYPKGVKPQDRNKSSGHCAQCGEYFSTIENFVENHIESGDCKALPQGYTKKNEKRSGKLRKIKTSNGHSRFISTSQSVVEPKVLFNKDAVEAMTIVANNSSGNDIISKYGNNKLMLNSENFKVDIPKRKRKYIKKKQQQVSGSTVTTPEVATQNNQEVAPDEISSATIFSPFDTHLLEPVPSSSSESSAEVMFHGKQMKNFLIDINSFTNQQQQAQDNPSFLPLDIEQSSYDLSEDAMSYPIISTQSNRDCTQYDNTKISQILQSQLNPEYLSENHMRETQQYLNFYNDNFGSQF
Method in brief: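 The E-score, a modified Wilcoxon-Mann-Whitney statistic, was computed by the Universal PBM Analysis Suite for every ungapped eight-base word pooled with its reverse complement. Scans behind it were normalised with masliner after bound GST-tagged yeast transcription factors were detected with fluorescent anti-GST. The proteins, at about 100-200 nM, had been applied to universal all-10-mer Agilent arrays made double-stranded by primer extension.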

Sequence	PBM E-score
GGTCGGAC	-0.175
CGCAAGCG	-0.134
TACCCCTA	-0.273
AGTGTAGA	-0.0893
GCTACCCA	-0.203
AACTGGGA	-0.088
AGAGGGTC	-0.317
AAAAAGGG	-0.155
AGGGAAAA	0.0119
GACAGAGC	-0.227
CAACACAC	0.0261
AAGTCGTC	-0.255
CTGCATTC	-0.111
ACTAGACC	-0.0753
AACTCGCC	0.112
ATCGGTGC	0.0436
AATCATTC	0.146
ACACAACG	0.167
ATACAAAG	0.115
ACTTACCG	0.172
GGAGGCAC	0.148
CACCTGTA	0.0319
ATCGCTAA	-0.00855
GCACACGA	0.177
CGAGGGCA	0.124

Sequence	PBM E-score
ACGTACGG	0.292
ACGCATGG	0.0452
GATATCGC	0.108
CTGCTAAG	-0.177
GAATAGAA	0.205
AGACCGAA	0.036
AAGCCGTA	0.398
AAGGCAGT	0.103
AAGGCATA	0.181
GTGGGTCA	-0.142
ACAAAGAA	0.147
GAATAAGC	-0.0414
GATAATGC	0.143
GATCGGAA	-0.149
ATTAACTG	0.105
GTCTCCTA	-0.292
TGCTAGAA	0.0584
CTGAGGCC	-0.152
AACAGCGT	0.0405
CGTGACGC	0.226
CAAACCCC	-0.196
AATCAGCT	0.00157
TCACTCGA	-0.0257
CGAATAAA	0.179
CGAGGCAA	0.359

Sequence	PBM E-score
AGTTGCTA	0.129
CAGACACA	0.0457
CACGGGCG	0.0844
CTAGGGTC	-0.205
AGCCTTGA	-0.0777
AGGCACAG	0.133
ATCGGTAA	0.0314
ATCTACAG	0.129
CAATGTGA	0.179
GAGCTCAC	-0.113
AAGTCTCT	-0.368
AGACGGGC	0.0775
CCTACTTA	-0.0676
ACAGACAA	0.163
GCTGGCCA	-0.194
GTATTTCA	0.11
CAGGGACA	-0.015
AGCTCGGA	-0.226
CGCACGCA	-0.00526
ACGGATTC	0.121
TATGCGGA	0.207
CGAGTACG	0.00768
CAACTACG	-0.0551
GAGGCGCC	0.414
CGTTGTTA	0.107

Sequence	PBM E-score
TAGGAAGA	-0.355
AGTGTTGG	-0.103
CACCCCAC	-0.169
ACCATCCT	-0.103
ACCAAGGT	0.0467
TCTGTAAA	0.0755
AAATATCG	0.128
CGCTGGGA	-0.278
CAGTCTCC	-0.209
CCTCCTAA	-0.173
CAGTTTGC	0.129
CATAAAGG	0.0294
ATTGAGCC	0.224
TATAAGGA	0.224
TAAGTAGA	0.132
CACCTAAG	0.0678
ATAAAAAC	0.182
CACCAGGC	-0.167
GATAGACC	-0.163
AGTTATGG	-0.0288
CACCGATA	-0.0268
ATCTCAGA	-0.0839
CCCTTCAG	-0.262
CCTTTGAG	-0.117
CTCATATC	-0.109

Sequence	PBM E-score
CCGGCAGG	-0.17
TATGGTCA	-0.0624
CCGGTGCA	-0.169
AGCTGTAA	-0.0621
GACTACGA	-0.15
GAAGCCCA	-0.264
GATGTACC	-0.0748
AACCGGGC	-0.115
ATGATGCC	0.337
ATTCACGC	-0.039
AGGGTGCA	-0.0871
CCTACCAA	0.114
CGGCGTGA	0.298
CGTCGCAA	0.0975
CGTCGGCA	-0.00734
CCCTGCGA	-0.0927
GTCAAAGA	-0.0139
GCACAGGA	0.0797
AATCCGCT	-0.183
AAATCACC	0.0528
AACTTGAA	0.192
CTTTCTGA	0.0728
ATAGACAG	0.00341
CATTCCGC	-0.029
ACAGCTCA	-0.0404

Sequence	PBM E-score
TACGTAGA	0.113
GGATATAC	0.104
ATCATAAT	0.124
CGGCGTTA	0.454
ATTTGGCC	0.0824
CAGCTCAA	0.00202
AACGCCTT	0.328
AGAGTGCT	-0.00994
AAGTATTC	0.0654
CTCGGTTC	-0.217
GATACGCC	0.146
ACGCGTAC	0.118
AGCACGTA	-0.132
GCCCCTAA	-0.229
CAGTGTGG	-0.131
CAAACTGC	0.0962
AAAACAAG	0.0884
CGTGCGAG	0.192
CTTACGAC	-0.167
CGCATTAG	-0.155
AAAGTCAG	0.0706
ACGGGCGC	0.233
CGCGGGCA	0.175
CCTCGCCG	-0.0333
CAGCCTAC	-0.0641

Sequence	PBM E-score
CTCTACGC	0.0798
AATTAACT	0.0652
AAGCGTAT	0.0589
AAGCGCTA	-0.0662
ACGAGGTG	-0.0462
AGTCACTA	-0.0131
ATAAAATC	0.172
ACATCGCA	-0.185
GCTTCGTA	-0.0504
CATCAGGC	-0.0172
CAAGTATC	-0.0728
GCCCGTTA	-0.146
CCCCCATA	-0.301
GCAATACA	0.0967
ATATGCTG	-0.126
CAAGATGC	0.156
ACCACGCT	-0.0843
ATAGGTTG	-0.0757
GAGAGTAA	-0.0306
ATCGTTAC	-0.232
GCCCGAGC	0.0148
ACAATGTA	-0.034
TCACATAA	0.0966
GACCCCAA	-0.235
GCAGAAGC	0.0258

Sequence	PBM E-score
GACGCTCA	-0.136
AGGTCGGG	-0.311
AGCTAGCA	-0.0803
ACAGTTAT	-0.0487
ATGAGGGA	-0.268
AGATGTTG	-0.0993
AGTTTAAA	0.212
CCACACCG	0.126
CAGCAGCG	0.0862
CCTGCGAC	-0.287
AGCCTCTC	-0.167
ACTGGATG	-0.167
AGCCAGGG	-0.241
CCATGTGC	0.206
AATGCAGT	-0.0125
CTTGGGGC	0.194
CGGGCCAG	-0.159
CAGTCCAG	-0.212
AGATAAAC	0.213
CGTAAGCA	-0.107
GAATGTGC	0.13
ATCATGAA	0.106
ACTGGACC	-0.159
GGCCCAAA	-0.136
CAGCGCAA	-0.124

Sequence	PBM E-score
AAGACATG	-0.116
CATGACTC	-0.18
CTGGTGCA	-0.0667
CAGAGCAA	-0.0443
CCGGAACC	-0.154
TGCTGCAA	0.105
CCGACCAG	-0.144
CTACTCGC	-0.0788
ATAGGTGA	-0.197
GATTATAC	0.179
AAGCCAGG	-0.219
ATCCCCGC	0.0142
GCCCATAC	-0.0603
AAATCTAT	0.169
GGATTTAA	0.0769
ACCGGAAA	-0.188
CTGTGATC	-0.0819
TGGCGGAA	-0.223
TCCCCCAA	-0.311
